Laboratory results reported in article PMC4336329 (PLoS ONE, 2015).
In all, about 310,000 compounds went through this assay and about 2,200 (0.71%) showed an effect of 50% or more. Effects have a minus sign here. This is one part of the list.

The molecules below were run against human ether-à-go-go-related gene (hERG) potassium channel (human, UniProt Q12809) (assay: primary screen, population patch clamp on CHO cells stably expressing hERG).
Sequence of human ether-à-go-go-related gene (hERG) potassium channel (Q12809 whole entry, looked up): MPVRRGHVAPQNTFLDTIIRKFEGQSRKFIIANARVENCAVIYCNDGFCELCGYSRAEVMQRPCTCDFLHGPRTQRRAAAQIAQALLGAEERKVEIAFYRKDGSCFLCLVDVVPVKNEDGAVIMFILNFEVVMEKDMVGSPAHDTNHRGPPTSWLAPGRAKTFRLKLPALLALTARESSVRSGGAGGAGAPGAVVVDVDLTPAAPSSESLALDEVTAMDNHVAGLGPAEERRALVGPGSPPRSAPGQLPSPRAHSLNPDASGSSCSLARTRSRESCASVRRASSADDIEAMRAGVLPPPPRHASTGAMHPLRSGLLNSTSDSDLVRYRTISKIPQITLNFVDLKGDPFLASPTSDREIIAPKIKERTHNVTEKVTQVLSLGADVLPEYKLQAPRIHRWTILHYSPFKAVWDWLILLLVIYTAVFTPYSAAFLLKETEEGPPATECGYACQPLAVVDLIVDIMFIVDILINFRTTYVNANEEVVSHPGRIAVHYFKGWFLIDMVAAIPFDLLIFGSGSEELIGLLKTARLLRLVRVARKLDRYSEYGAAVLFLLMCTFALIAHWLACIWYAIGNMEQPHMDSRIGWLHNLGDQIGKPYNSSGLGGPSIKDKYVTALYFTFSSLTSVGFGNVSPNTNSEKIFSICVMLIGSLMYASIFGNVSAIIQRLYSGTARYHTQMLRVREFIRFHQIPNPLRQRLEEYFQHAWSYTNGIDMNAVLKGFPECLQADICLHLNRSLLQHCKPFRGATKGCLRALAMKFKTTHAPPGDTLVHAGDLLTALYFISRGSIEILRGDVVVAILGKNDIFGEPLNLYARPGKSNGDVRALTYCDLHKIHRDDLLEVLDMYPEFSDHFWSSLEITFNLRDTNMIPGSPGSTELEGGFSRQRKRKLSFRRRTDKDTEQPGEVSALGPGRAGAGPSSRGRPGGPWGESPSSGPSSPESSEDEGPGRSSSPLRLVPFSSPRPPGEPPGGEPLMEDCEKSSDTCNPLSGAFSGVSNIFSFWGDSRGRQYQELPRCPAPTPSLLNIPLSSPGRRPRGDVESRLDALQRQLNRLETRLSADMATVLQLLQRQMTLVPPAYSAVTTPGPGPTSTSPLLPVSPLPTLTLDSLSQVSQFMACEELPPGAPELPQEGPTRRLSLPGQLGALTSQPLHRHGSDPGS

Point of comparison: `COC(=O)c1sccc1-c1ccc(C(=O)Nc2cccc(Cl)c2)o1`, “hERG current change (%, negative = inhibition) at 1uM” value 19.4%. Against it:
- C=CCOc1ccc(C2=NO[C@@H]3[C@@H]4C[C@@H]([C@H]5C(=O)N(C)C(=O)[C@@H]45)[C@H]23)cc1 — lower, 9.77%
- O=C(Oc1ccc(-c2csnn2)cc1)c1cccs1 — lower, 15.7%
- CCOC(=O)COc1nc(Nc2ccccc2C)nc(N(C)C)n1 — lower, 4.21%
- O=C(NNS(=O)(=O)c1ccccc1[N+](=O)[O-])c1cccc([N+](=O)[O-])c1 — lower, 8.49%
- Cc1ccc(CS(=O)(=O)c2nc3c(c(N(C)C)n2)CCCC3)cc1 — lower, 0.691%
- COC(=O)C1=CN(c2ccc(F)cc2)C=C(C(=O)OC)C1c1ccc([N+](=O)[O-])cc1 — lower, 5.42%
- Cc1cc(=O)[nH]c(SCC(=O)N(CCC#N)c2ccccc2)c1C#N — lower, 10.3%
- O=C(CCCOc1ccccc1)Nc1nnc(C2CCCO2)s1 (centres unmarked) — lower, 15.4%
- O=C(c1ccc(F)cc1Cl)N(Cc1ccco1)C1CCS(=O)(=O)C1 (centres unmarked) — lower, 7.9%
- CCOC(=O)Cn1c(=O)n(Cc2ccccc2)c(=O)c2cccnc21 — lower, 0.721%
- Cc1ccc(-c2csc(N3CCN(CCCn4c(-c5ccncc5)nc5ccccc54)CC3)n2)cc1 — lower, 11.6%
- O=C(COC(=O)c1c(F)cccc1Cl)NC1CCCC1 — lower, 7.04%
- CCOCC(=O)Nc1cc([N+](=O)[O-])ccc1OC — lower, 12.2%
- CC(=O)NC1CCN(CC(=O)Nc2nccs2)CC1 — lower, 14.9%
- O=C(NNC1=C(C(=O)C(F)(F)F)CCC1)c1ccccc1O — lower, 17.1%
- Cn1nnc(NC(=S)NC(=O)c2cc(Cl)ccc2Cl)n1 — lower, 17.6%
- CCOC(=O)C1(Cc2ccccc2)CCCN(C2CCCC2)C1 (centres unmarked) — lower, 7.79%
- CCCOc1cccc(C2/C(=C(/O)c3ccc(OC)cc3)C(=O)C(=O)N2CCN(C)C)c1 (centres unmarked) — lower, 7.35%
- CCN(c1ccc(C)c(C)c1)S(=O)(=O)c1ccc2c(c1)CCN2C(=O)CCC(=O)O — lower, -2.34%
- Cc1ccc(Cl)c(OC(=O)c2nn(C(C)C)c(=O)c3ccccc23)c1 — lower, 3.46%
- CCOC(=O)NNC(=S)Nc1c(C)n(C)n(-c2ccccc2)c1=O — lower, 8.77%
- COc1ccc(CCC(=O)NNC(=O)c2ccc(OC)cc2)cc1 — lower, 6.53%
- COc1ccccc1C(=O)NCc1n[nH]c(=S)n1Cc1ccccc1 — lower, 9.86%
- CCCCCCn1c(SCCCC)nc2c1c(=O)[nH]c(=O)n2C — lower, 6.01%
- CC(C)c1cccc(C(C)C)c1NC(=O)Cn1c(=O)cnc2ccccc21 — lower, 6.47%
- Cc1cc2n(n1)C(c1cn(-c3ccccc3)nc1C)Nc1c(C)cccc1-2 (centres unmarked) — lower, -4.96%
- Nc1cc(=O)[nH]c(=O)n1CCCc1ccccc1 — lower, 15.6%
- CCc1ccccc1N1C(=O)c2cccc3c(N4CCOCC4)c([N+](=O)[O-])cc(c23)C1=O — lower, -4.44%
- Cc1ccc(-c2nc3ncccc3o2)cc1NC(=O)Cc1ccc(Cl)cc1 — lower, 18.5%
- COc1ccc([N+](=O)[O-])cc1NC(=O)CCNC(=O)Cn1ccc2ccccc2c1=O — lower, 9.67%
- CSc1ccc(CN(C)C(=O)c2cc3ccccc3o2)cc1 — lower, 16%
- C=CCOC(=O)/C(=C/c1ccco1)NC(=O)/C=C/c1ccccc1 — lower, 8.2%
- COC(=O)c1c(C(=O)OC)c(-c2ccc(OC)cc2)n2c1CS(=O)(=O)C2 — lower, 15.1%
- Cc1cc(Nc2ccccc2)n(-c2ccc(C(=O)O)cc2)n1 — lower, 5.25%
- N#Cc1cc(-c2ccccc2)cn(Cc2c(Cl)cccc2Cl)c1=O — lower, 8.39%
- CCC(NC(=O)COc1ccc([N+](=O)[O-])cc1)c1ccccc1 (centres unmarked) — lower, -13.9%
- O=[N+]([O-])c1ccc2[nH]c3nc4ccccc4nc3c2c1 — higher, 19.5%
- CCOC(=O)CCSc1nc(C)c2ccccc2n1 — lower, 4.93%
- Cc1cc(C)cc(OCC(=O)Nc2ccc(S(=O)(=O)Nc3ccccn3)cc2)c1 — lower, 7.72%
- COc1ccccc1NS(=O)(=O)c1cccc(NC(=O)Nc2ccc(Cl)cc2)c1 — lower, 5.27%
- Cn1c(=O)cc(OCCCC(=O)Nc2ccc3c(c2)OCCO3)c2ccccc21 — lower, 17.2%
- CC1(C)Cc2c(cnn2-c2cccc(F)c2)C(NC(=O)c2ccc[n+]([O-])c2)C1 (centres unmarked) — lower, 6.78%
- Nn1c(SCC(=O)Nc2ccc(Oc3ccccc3)cc2)nnc1C1CC1 — lower, -1.39%
- Cc1cc(C)nc(NC(=O)c2c(-c3c(Cl)cccc3Cl)noc2C)n1 — lower, 12%
- COc1ccc2sc(NC(=O)NC(=O)c3c(Cl)cccc3Cl)nc2c1 — lower, 8.81%
- CN(C)c1ccc(C(=O)OCC(=O)N2CCCCCC2)cc1 — lower, 15.7%
- O=C(COC(=O)/C=C/c1ccccc1)NNC(=O)c1ccc([N+](=O)[O-])cc1 — lower, -2.04%
- O=C(NCC(c1ccco1)N1CCCCC1)c1ccc(COc2ccccc2)cc1 (centres unmarked) — lower, 18.7%
- CCN(C(=O)CSc1nnc2c3ccccc3n(CC)c2n1)C1CCS(=O)(=O)C1 (centres unmarked) — lower, 6.14%
- CCC(C)N1C(=O)c2ccccc2C1C(=O)NC1CCCCCC1 (centres unmarked) — lower, 7.44%
- Cc1ccccc1N(C(=O)c1snc(C(N)=O)c1N)C(C)C(=O)NC1CCCCC1 (centres unmarked) — lower, 4.04%
- COc1ccc(C2C=C(C)Nc3nc(SC)nn32)cc1 (centres unmarked) — lower, 8.75%
- Cc1ccc(-n2c(=S)[nH]c3[nH]ncc3c2=O)cc1 — lower, -1.57%
- Cc1ccc(NC(=O)Cn2c(C)cc(C)c(C#N)c2=O)c(Cl)c1 — lower, 11.5%
- CC(C)(CNC(=O)C1c2ccccc2-c2ccccc21)N1CCOCC1 — lower, 10.7%
